Measured values: the supplement of paper PMC9151546
Many values rest on one well or one pass, so single values are uncertain.

Assays:
CHO-K1 [1] = test: relative survival (nuclei to bead ratio vs DMSO control) (% of vehicle control); higher = more surviving cells
CHO-K1 [2] = test: micronucleus frequency (% of nucleated events); higher = more micronuclei (genotoxic)
CHO-K1 [3] = test: hypodiploid nuclei frequency (% of nucleated events); higher = more hypodiploid events (aneugenic)
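Wherever hypodiploid nuclei frequency (% of nucleated events) is given: hypodiploid nuclei gated on a flow cytometer with 488 nm excitation after SYTOX Green staining, cultures at 37 °C, positive controls vinblastine without S9 and cyclophosphamide with S9.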
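Wherever micronucleus frequency (% of nucleated events) is given: cells lysed with nuclei stained by SYTOX Green, then micronucleus-gated events counted against nucleated events by flow cytometry with 488 nm excitation.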
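Wherever relative survival (nuclei to bead ratio vs DMSO control) is given: Lysed-cell nuclei stained with SYTOX Green and counted against counting beads by flow cytometry at 488 nm excitation, with vinblastine (no S9) and cyclophosphamide (plus S9) as positive controls.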

CC(C)(C)c1cc(O)ccc1O [tert-Butylhydroquinone]
Conditions | hypodiploid nuclei frequency, CHO-K1 [3] [%] | micronucleus frequency, CHO-K1 [2] [%] | relative survival, CHO-K1 [1]
concentration: 4.5 (µM), S9 metabolic activation: with S9, exposure time: 3-4 hours | 0.34 | 1.74 | 119
concentration: 4.5 (µM), S9 metabolic activation: without S9, exposure time: 24 hours | 0.46 | 1.7 | 78.4
concentration: 5.63 (µM), S9 metabolic activation: with S9, exposure time: 3-4 hours | 0.18 | 1.4 | 130
concentration: 5.63 (µM), S9 metabolic activation: without S9, exposure time: 24 hours | 0.66 | 2.2 | 66
concentration: 7.04 (µM), S9 metabolic activation: with S9, exposure time: 3-4 hours | 0.22 | 2.02 | 112
concentration: 7.04 (µM), S9 metabolic activation: without S9, exposure time: 24 hours | 0.62 | 1.56 | 83.6
concentration: 8.8 (µM), S9 metabolic activation: with S9, exposure time: 3-4 hours | 0.12 | 1.6 | 106
concentration: 8.8 (µM), S9 metabolic activation: without S9, exposure time: 24 hours | 0.56 | 1.68 | 76.8
concentration: 11 (µM), S9 metabolic activation: with S9, exposure time: 3-4 hours | 0.14 | 1.32 | 146
concentration: 11 (µM), S9 metabolic activation: without S9, exposure time: 24 hours | 0.9 | 1.84 | 100
concentration: 13.7 (µM), S9 metabolic activation: with S9, exposure time: 3-4 hours | 0.14 | 2.04 | 110
concentration: 13.7 (µM), S9 metabolic activation: without S9, exposure time: 24 hours | 0.8 | 1.64 | 107
concentration: 17.2 (µM), S9 metabolic activation: with S9, exposure time: 3-4 hours | 0.28 | 1.68 | 105
concentration: 17.2 (µM), S9 metabolic activation: without S9, exposure time: 24 hours | 0.7 | 1.52 | 94.9
concentration: 21.5 (µM), S9 metabolic activation: with S9, exposure time: 3-4 hours | 0.34 | 1.58 | 127
concentration: 21.5 (µM), S9 metabolic activation: without S9, exposure time: 24 hours | 0.68 | 2.08 | 92.5
concentration: 26.8 (µM), S9 metabolic activation: with S9, exposure time: 3-4 hours | 0.3 | 2.42 | 111
concentration: 26.8 (µM), S9 metabolic activation: without S9, exposure time: 24 hours | 0.7 | 2.1 | 72.2
concentration: 33.6 (µM), S9 metabolic activation: with S9, exposure time: 3-4 hours | 0.68 | 3.44 | 80.2
concentration: 33.6 (µM), S9 metabolic activation: without S9, exposure time: 24 hours | 0.62 | 2.14 | 72.7
concentration: 41.9 (µM), S9 metabolic activation: with S9, exposure time: 3-4 hours | 0.86 | 4.78 | 69.8
concentration: 41.9 (µM), S9 metabolic activation: without S9, exposure time: 24 hours | 1.22 | 4.22 | 42.1
concentration: 52.4 (µM), S9 metabolic activation: with S9, exposure time: 3-4 hours | 0.74 | 4.74 | 61.4
concentration: 52.4 (µM), S9 metabolic activation: without S9, exposure time: 24 hours | – | – | 14.2
concentration: 65.5 (µM), S9 metabolic activation: with S9, exposure time: 3-4 hours | 1.21 | 6.34 | 46.2
concentration: 65.5 (µM), S9 metabolic activation: without S9, exposure time: 24 hours | – | – | 1.82
concentration: 81.9 (µM), S9 metabolic activation: with S9, exposure time: 3-4 hours | 1.44 | 7.64 | 44.6
concentration: 102 (µM), S9 metabolic activation: with S9, exposure time: 3-4 hours | – | – | 39.1
concentration: 128 (µM), S9 metabolic activation: with S9, exposure time: 3-4 hours | – | – | 33.9
concentration: 160 (µM), S9 metabolic activation: with S9, exposure time: 3-4 hours | – | – | 29
concentration: 200 (µM), S9 metabolic activation: with S9, exposure time: 3-4 hours | – | – | 30.6
